According to PubChem BioAssay (NCI):
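Dose response: 5 concentrations. Exposure: 48 h. Format: 96-well plates. Endpoint: linear interpolation; highest concentration if not reached. Here, GI50 denotes the concentration required for 50% inhibition of growth. At the TGI there is no net growth.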

System: NCI-H322M lung
Experiment: DTP human tumour cell line panel, 48 h

Question: Which results are given for `NS(=O)(=O)c1ccc(NC(=O)CSc2ccc(-c3ccc(Cl)cc3)nn2)c(Br)c1`?
Answer: GI50: 14.7 µM; TGI: 79 µM
